Data from publication PMC10497417.
Where a chain is given by its changes, count along the chain named. These are yes or no findings as the source states them, for the method shown. In cells and extracts the contact can be indirect. Some binding calls cover weakened binding; strength is not graded here. For some of these results: Sequences can lack the tags named with a protein.

Sequences of proteins named here, by UniProt entry; tags and fusion partners are left off.
UniProt Q8IY92: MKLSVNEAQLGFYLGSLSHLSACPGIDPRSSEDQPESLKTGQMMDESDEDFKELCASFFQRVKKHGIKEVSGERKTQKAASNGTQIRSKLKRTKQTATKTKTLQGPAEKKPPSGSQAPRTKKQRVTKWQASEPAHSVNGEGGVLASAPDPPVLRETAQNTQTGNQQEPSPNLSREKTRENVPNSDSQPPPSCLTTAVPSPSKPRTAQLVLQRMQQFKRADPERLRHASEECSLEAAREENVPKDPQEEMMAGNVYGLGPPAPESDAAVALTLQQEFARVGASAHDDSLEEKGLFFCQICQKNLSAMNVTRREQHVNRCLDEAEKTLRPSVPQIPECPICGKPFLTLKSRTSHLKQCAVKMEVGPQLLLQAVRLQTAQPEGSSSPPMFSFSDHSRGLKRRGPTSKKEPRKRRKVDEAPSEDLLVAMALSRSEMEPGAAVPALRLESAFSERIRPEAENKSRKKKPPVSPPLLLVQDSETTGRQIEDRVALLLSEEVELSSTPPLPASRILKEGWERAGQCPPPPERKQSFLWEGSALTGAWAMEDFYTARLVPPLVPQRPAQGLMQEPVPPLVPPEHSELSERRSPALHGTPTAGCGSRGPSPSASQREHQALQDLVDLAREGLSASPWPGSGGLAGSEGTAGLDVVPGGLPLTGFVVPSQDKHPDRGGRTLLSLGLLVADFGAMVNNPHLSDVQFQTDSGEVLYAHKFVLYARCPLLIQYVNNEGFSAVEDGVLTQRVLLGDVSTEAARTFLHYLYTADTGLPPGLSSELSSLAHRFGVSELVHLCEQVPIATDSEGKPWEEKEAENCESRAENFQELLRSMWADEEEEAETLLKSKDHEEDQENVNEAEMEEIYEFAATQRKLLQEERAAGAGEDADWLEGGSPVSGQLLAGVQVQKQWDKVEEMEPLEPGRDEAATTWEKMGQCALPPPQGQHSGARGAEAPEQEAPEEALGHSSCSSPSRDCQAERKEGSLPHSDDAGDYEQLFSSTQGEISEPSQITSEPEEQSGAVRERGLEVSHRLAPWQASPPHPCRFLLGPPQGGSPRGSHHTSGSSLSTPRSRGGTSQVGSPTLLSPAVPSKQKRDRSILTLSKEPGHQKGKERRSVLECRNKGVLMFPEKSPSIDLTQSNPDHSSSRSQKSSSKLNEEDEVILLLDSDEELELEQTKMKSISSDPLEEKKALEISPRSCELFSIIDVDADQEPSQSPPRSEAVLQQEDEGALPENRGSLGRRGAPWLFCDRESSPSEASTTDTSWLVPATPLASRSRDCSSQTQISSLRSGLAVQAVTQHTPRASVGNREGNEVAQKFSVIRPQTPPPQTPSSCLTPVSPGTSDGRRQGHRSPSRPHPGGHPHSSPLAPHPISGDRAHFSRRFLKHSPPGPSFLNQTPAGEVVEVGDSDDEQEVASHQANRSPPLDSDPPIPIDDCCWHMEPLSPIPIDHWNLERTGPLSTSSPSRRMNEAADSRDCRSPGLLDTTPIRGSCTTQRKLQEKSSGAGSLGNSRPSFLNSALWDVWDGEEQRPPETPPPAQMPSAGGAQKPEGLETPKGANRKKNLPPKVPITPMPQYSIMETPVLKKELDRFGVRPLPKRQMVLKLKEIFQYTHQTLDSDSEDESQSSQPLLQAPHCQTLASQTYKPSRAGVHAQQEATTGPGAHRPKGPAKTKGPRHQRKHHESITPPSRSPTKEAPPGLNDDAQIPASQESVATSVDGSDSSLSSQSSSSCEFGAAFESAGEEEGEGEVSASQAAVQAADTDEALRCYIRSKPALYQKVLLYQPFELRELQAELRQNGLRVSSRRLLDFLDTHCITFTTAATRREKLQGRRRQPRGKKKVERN
UniProt P63279: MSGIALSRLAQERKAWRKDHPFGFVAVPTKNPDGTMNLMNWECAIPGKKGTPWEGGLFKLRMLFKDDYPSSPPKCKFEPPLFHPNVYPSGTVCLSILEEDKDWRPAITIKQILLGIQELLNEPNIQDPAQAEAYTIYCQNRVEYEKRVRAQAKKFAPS

Columns and labels:
[1] = molecular target: T1, GFP-NIP45 WT (HEK293 cells) (human) (UniProt Q8NCF5); test: co-IP; GFP immunoprecipitates from whole-cell lysates of HEK293 cells transfected with GFP-NIP45 WT and Flag-HA-SLX4; western blot
T1 sequence: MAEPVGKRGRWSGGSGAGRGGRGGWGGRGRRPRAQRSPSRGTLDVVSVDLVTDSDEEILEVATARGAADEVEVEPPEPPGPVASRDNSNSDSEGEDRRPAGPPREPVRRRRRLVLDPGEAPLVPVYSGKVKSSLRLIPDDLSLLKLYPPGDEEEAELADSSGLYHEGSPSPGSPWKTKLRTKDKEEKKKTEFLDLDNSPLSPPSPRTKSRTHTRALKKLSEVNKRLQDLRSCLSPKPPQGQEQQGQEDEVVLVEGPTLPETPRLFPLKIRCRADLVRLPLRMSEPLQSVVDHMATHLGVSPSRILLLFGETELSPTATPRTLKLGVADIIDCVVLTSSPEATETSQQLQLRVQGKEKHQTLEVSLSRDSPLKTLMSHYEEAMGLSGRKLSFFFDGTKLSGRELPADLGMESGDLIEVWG

GFP-NIP45 ΔSLD2 (human) = molecular target: T2, GFP-NIP45 ΔSLD2 (human) (UniProt Q8NCF5); test: co-IP; GFP-trap pulldown from lysates of U2OS Flp-In T-REx NIP45-KO cells expressing GFP only or GFP-NIP45 alleles; low-salt buffer (50 mM Tris-HCl pH 7.5, 50 mM NaCl, 1 mM EDTA, 1% NP-40), 4 °C; immunoblot
T2 sequence: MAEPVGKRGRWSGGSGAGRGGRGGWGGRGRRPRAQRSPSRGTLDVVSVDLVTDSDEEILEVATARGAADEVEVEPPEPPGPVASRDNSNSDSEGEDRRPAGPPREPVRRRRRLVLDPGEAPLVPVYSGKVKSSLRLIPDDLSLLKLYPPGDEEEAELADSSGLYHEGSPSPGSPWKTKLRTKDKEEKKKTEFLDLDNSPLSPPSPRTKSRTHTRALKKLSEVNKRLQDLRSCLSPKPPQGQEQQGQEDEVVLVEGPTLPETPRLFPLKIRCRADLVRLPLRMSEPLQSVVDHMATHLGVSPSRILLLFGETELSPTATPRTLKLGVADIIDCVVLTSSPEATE

[2] = molecular target: T3, GFP-NIP45 SLD2* (D394R) (human) (UniProt Q8NCF5); test: as above
T3 sequence: T1 sequence with D394R

GFP-NIP45 ΔSLD1 (human) = molecular target: T4, GFP-NIP45 ΔSLD1 (human) (UniProt Q8NCF5); test: as above
T4 sequence: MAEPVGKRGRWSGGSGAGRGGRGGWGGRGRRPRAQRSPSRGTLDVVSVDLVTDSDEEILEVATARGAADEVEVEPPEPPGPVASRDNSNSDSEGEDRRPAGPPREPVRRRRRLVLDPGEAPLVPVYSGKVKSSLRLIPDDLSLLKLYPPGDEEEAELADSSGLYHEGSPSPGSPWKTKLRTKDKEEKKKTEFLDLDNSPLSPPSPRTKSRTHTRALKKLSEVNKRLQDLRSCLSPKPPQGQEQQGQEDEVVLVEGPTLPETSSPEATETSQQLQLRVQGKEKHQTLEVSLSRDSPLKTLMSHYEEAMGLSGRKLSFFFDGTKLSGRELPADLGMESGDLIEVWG

[3] = molecular target: T5, GFP-NIP45 WT (U2OS Flp-In T-REx NIP45-KO cells) (human) (UniProt Q8NCF5); test: as above
T5 sequence: T1 sequence

[4] = molecular target: T6, NFAT-interacting protein 45 (NIP45), endogenous (human (endogenous in HeLa)) (UniProt Q8NCF5); test: co-IP; NIP45 immunoprecipitation (sheep anti-NIP45 on protein G beads, sheep IgG as control) from whole-cell lysates of HeLa wt and NIP45-KO cells; EBC buffer (50 mM Tris-HCl pH 7.5, 150 mM NaCl, 1 mM EDTA, 0.5% NP-40), 4 h at 4 °C; immunoblot
T6 sequence: T1 sequence

GFP-SLX4 (human) = GFP-SLX4 (human) (UniProt Q8IY92); test: co-IP; GFP IPs (GFP-trap, low-salt buffer) from whole-cell lysates of parental U2OS cells or U2OS cells expressing GFP-SLX4, transfected with mCherry-NIP45; immunoblot

## Flag-HA-SLX4 (from UniProt Q8IY92 1-1834)
[1]
  binding: binds

## SUMO E2 enzyme UBC9, endogenous (from UniProt P63279 1-158)
GFP-NIP45 ΔSLD2 (human)
  binding: no binding
[2]
  binding: no binding
GFP-NIP45 ΔSLD1 (human)
  binding: binds
[3]
  binding: binds
[4]
  binding: binds

B1: mCherry-NIP45 (protein, UniProt Q8NCF5 1-419)
chain: T1 sequence
GFP-SLX4 (human)
  binding: binds
